The source of these data is the antibiotic and cytotoxicity screens of Wong et al. (2023).

Structures are written as SMILES. This is one part of the list.

For the first test, the system named is HSkMC (human skeletal muscle cells). As to the kind of experiment: cytotoxicity call (relative viability < 0.9). Conditions: 10 µM.
For the compound `COc1cccc(S(=O)(=O)N(C)C[C@H]2OCc3cn(nn3)CCCC(=O)N([C@@H](C)CO)C[C@H]2C)c1`, the cytotoxicity call is “inactive”.

In the case of `COc1ccc(S(=O)(=O)Nc2cccc3c2O[C@@H](CN(C)Cc2ccc(Oc4ccccc4)cc2)[C@@H](C)CN([C@@H](C)CO)C3=O)cc1`, the cytotoxicity call was “inactive”.

As for `CC(C)NC(=O)Nc1ccc2c(c1)C(=O)N([C@@H](C)CO)C[C@@H](C)[C@@H](CN(C)S(=O)(=O)c1ccccc1)O2`, the cytotoxicity call is “inactive”.

Take `C[C@@H]1CN([C@@H](C)CO)C(=O)c2cccc(NC(=O)c3ccc(-c4nccs4)cc3)c2O[C@@H]1CN(C)C(=O)Nc1ccc(F)cc1`: the cytotoxicity call was “inactive”.

For the compound `COc1ccc(CN(C)C[C@H]2Oc3ccc(NC(=O)C4CC4)cc3CC(=O)N([C@H](C)CO)C[C@H]2C)cc1`, the cytotoxicity call was “inactive”.

Turning to `COc1ccc(CN(C)C[C@H]2Oc3c(NC(=O)C4CCOCC4)cccc3C(=O)N([C@@H](C)CO)C[C@@H]2C)cc1`, the cytotoxicity call is “inactive”.

For `CS(=O)(=O)NCc1ccsc1`, the cytotoxicity call was “inactive”.

Regarding `O=C(C[C@@H]1C=C[C@@H](NC(=O)Cc2ccccn2)[C@@H](CO)O1)NCCCN1CCOCC1`, the cytotoxicity call is “inactive”.

Take `C[C@H](CO)N1C[C@H](C)[C@H](CN(C)Cc2ccc(Cl)c(Cl)c2)OCCCC[C@H](C)Oc2ccc(NS(C)(=O)=O)cc2C1=O`: the cytotoxicity call was “inactive”.

In the case of `C[C@H]1CN([C@@H](C)CO)C(=O)c2cccc(NC(=O)Nc3ccc(C(F)(F)F)cc3)c2O[C@@H]1CN(C)Cc1ccncc1`, the cytotoxicity call was “inactive”.

On to `CC(C)CC#Cc1ccc2c(c1)O[C@H](CN(C)C(=O)c1cnccn1)[C@@H](C)CN([C@H](C)CO)S2(=O)=O`, for which the cytotoxicity call is “inactive”.

For a further test, the system named is HepG2. As to the kind of experiment: cytotoxicity call (relative viability < 0.9). Conditions: 10 µM.
With `C[C@@H]1CCCCO[C@@H](CN(C)Cc2ccncc2)[C@@H](C)CN([C@H](C)CO)C(=O)c2cc(NC(=O)Cc3ccccc3)ccc2O1`, the cytotoxicity call was “inactive”.

On to `C[C@@H]1CN([C@@H](C)CO)C(=O)c2ccccc2-c2ccccc2CO[C@H]1CN(C)C(=O)Nc1ccc(-c2ccccc2)cc1`, for which the cytotoxicity call is “inactive”.

For `CC1=CC(C)(C)N(C(=O)/C=C/c2ccccc2)c2ccc(C)cc21`, the cytotoxicity call is “inactive”.

In the case of `C[C@@H]1CCCCO[C@H](CN(C)Cc2ccccc2)[C@H](C)CN([C@@H](C)CO)C(=O)c2cc(NC(=O)Cc3ccccc3)ccc2O1`, the cytotoxicity call was “inactive”.

With `CC[C@H]1OC(=O)C[C@@H](O)[C@H](C)[C@@H](O[C@@H]2O[C@H](C)[C@@H](O[C@H]3C[C@@](C)(O)[C@@H](O)[C@H](C)O3)[C@H](N(C)C)[C@H]2O)[C@@H](CC=O)C[C@@H](C)C(=O)/C=C/C(C)=C/[C@@H]1CO[C@@H]1O[C@H](C)[C@@H](O)[C@@H](OC)[C@H]1OC`, the cytotoxicity call was “inactive”.

`CS(=O)(=O)N1C[C@@H]2OCC[C@@H]2[C@H](C(=O)NCc2cccnc2)C1`: the cytotoxicity call was “inactive”.

With `C[C@H](CO)N1C[C@H](C)[C@H](CN(C)Cc2ccc(C(=O)O)cc2)Oc2ccc(NS(=O)(=O)c3ccccc3)cc2CC1=O`, the cytotoxicity call is “inactive”.

For `O=C(C[C@@H]1CC[C@H]2[C@@H](COC[C@H](O)CN2S(=O)(=O)c2ccc(F)cc2)O1)NCc1ccc(Cl)c(Cl)c1`, the cytotoxicity call is “inactive”.

Regarding `COC[C@@H](C)NC(=O)C(=O)NC1CC1`, the cytotoxicity call is “inactive”.

`NC(=O)CSc1ncn(-c2ccccc2)n1`: the cytotoxicity call is “inactive”.

Consider `Cc1ccc(S(=O)(=O)Nc2ccc3c(c2)C(=O)N([C@@H](C)CO)C[C@H](C)[C@@H](CN(C)Cc2ccc(C(=O)O)cc2)OCCCC[C@H](C)O3)cc1`, for which the cytotoxicity call was “inactive”.

On to `COc1ccc(CN(C)C[C@@H]2Oc3ccc(NC(=O)Nc4cccc5ccccc45)cc3C(=O)N([C@@H](C)CO)C[C@@H]2C)cc1`, for which the cytotoxicity call was “inactive”.

Take `Cc1noc(C)c1S(=O)(=O)Nc1ccc2c(c1)C(=O)N([C@@H](C)CO)C[C@H](C)[C@@H](CN(C)S(=O)(=O)c1cccs1)O2`: the cytotoxicity call is “inactive”.

For `CS(=O)(=O)Nc1ccc2c(c1)[C@H]1C[C@@H](CC(=O)NCc3ccc(-c4ccccc4)cc3)O[C@@H](CO)[C@H]1O2`, the cytotoxicity call was “inactive”.

On to `COCCN1C[C@@H]2CN(C(=O)c3cnn(C)c3)C[C@H]2C1=O`, for which the cytotoxicity call was “inactive”.

`COc1ccc(CN(C)C[C@@H]2Oc3ccc(NC(=O)Cn4cnnn4)cc3CC(=O)N([C@@H](C)CO)C[C@@H]2C)cc1`: the cytotoxicity call was “inactive”.

On to `Cc1scc2c1N(C(=O)CN1CCN(C)CC1)c1ccccc1NC2=O.Cl`, for which the cytotoxicity call is “inactive”.

With `C[C@H](CO)N1C[C@H](C)[C@H](CN(C)CC2CCCCC2)Oc2ccc(NC(=O)CCN3CCOCC3)cc2CC1=O`, the cytotoxicity call is “inactive”.

On to `C[C@@H]1CN([C@@H](C)CO)S(=O)(=O)c2ccc(C#CC3(O)CCCC3)cc2O[C@H]1CN(C)C(=O)Nc1ccccc1`, for which the cytotoxicity call was “inactive”.

`COc1ccc2c3c([nH]c2c1)[C@H](CO)N(C[C@]13CN(Cc2cc(on2)-c2ccccc2)C1)C(=O)Nc1ccc(cc1)F`: the cytotoxicity call is “inactive”.

Regarding `C[C@@H]1CCCCO[C@@H](CN(C)C(=O)Nc2ccc3c(c2)OCO3)[C@@H](C)CN([C@H](C)CO)C(=O)c2cc(NC(=O)c3ccncc3)ccc2O1`, the cytotoxicity call was “inactive”.

As for `C[C@@H]1CCCCO[C@H](CN(C)C(=O)C2CCCCC2)[C@H](C)CN([C@@H](C)CO)C(=O)c2cc(NC(=O)Nc3cccc4ccccc34)ccc2O1`, the cytotoxicity call is “inactive”.

For `COc1ccc(CN(C)C[C@@H]2OCCCC[C@H](C)Oc3ccc(NC(=O)Nc4ccc5c(c4)OCO5)cc3C(=O)N([C@H](C)CO)C[C@@H]2C)cc1`, the cytotoxicity call is “inactive”.

As for `C[C@H](CO)N1C[C@H](C)[C@H](CN(C)Cc2ccc(Cl)c(Cl)c2)Oc2ccc(NC(=O)NC3CCCCC3)cc2CC1=O`, the cytotoxicity call is “inactive”.

For the compound `CC(C)NC(=O)N[C@H]1CC[C@H](CCN)O[C@H]1CO`, the cytotoxicity call was “inactive”.

`C[C@@H]1CN([C@@H](C)CO)C(=O)c2cccc(NC(=O)c3ccc(-c4nccs4)cc3)c2O[C@H]1CN(C)C(=O)Nc1ccc(F)cc1`: the cytotoxicity call was “inactive”.

As for `C[C@H]1CN([C@@H](C)CO)C(=O)c2cc(-c3ccncc3)cnc2O[C@@H]1CN(C)S(=O)(=O)c1ccc(F)cc1`, the cytotoxicity call was “inactive”.

In the case of `O=C(N[C@@H]1CC[C@@H](CCn2cc(C3(O)CCCC3)nn2)O[C@@H]1CO)C1CCOCC1`, the cytotoxicity call is “inactive”.

On to `CC(C)NC(=O)N(C)C[C@H]1Oc2ccc(NS(=O)(=O)c3cccs3)cc2CC(=O)N([C@@H](C)CO)C[C@H]1C`, for which the cytotoxicity call is “inactive”.

With `COc1cccc(S(=O)(=O)N(C)C[C@H]2OCc3cn(nn3)CCCC(=O)N([C@@H](C)CO)C[C@H]2C)c1`, the cytotoxicity call was “inactive”.

Turning to `COc1ccc(S(=O)(=O)Nc2cccc3c2O[C@@H](CN(C)Cc2ccc(Oc4ccccc4)cc2)[C@@H](C)CN([C@@H](C)CO)C3=O)cc1`, the cytotoxicity call is “inactive”.

Take `CC(C)NC(=O)Nc1ccc2c(c1)C(=O)N([C@@H](C)CO)C[C@@H](C)[C@@H](CN(C)S(=O)(=O)c1ccccc1)O2`: the cytotoxicity call is “inactive”.

For the compound `C[C@@H]1CN([C@@H](C)CO)C(=O)c2cccc(NC(=O)c3ccc(-c4nccs4)cc3)c2O[C@@H]1CN(C)C(=O)Nc1ccc(F)cc1`, the cytotoxicity call was “inactive”.

Take `COc1ccc(CN(C)C[C@H]2Oc3ccc(NC(=O)C4CC4)cc3CC(=O)N([C@H](C)CO)C[C@H]2C)cc1`: the cytotoxicity call was “inactive”.

Consider `COc1ccc(CN(C)C[C@H]2Oc3c(NC(=O)C4CCOCC4)cccc3C(=O)N([C@@H](C)CO)C[C@@H]2C)cc1`, for which the cytotoxicity call is “inactive”.

Consider `CS(=O)(=O)NCc1ccsc1`, for which the cytotoxicity call was “inactive”.

For `O=C(C[C@@H]1C=C[C@@H](NC(=O)Cc2ccccn2)[C@@H](CO)O1)NCCCN1CCOCC1`, the cytotoxicity call was “inactive”.

Consider `C[C@H](CO)N1C[C@H](C)[C@H](CN(C)Cc2ccc(Cl)c(Cl)c2)OCCCC[C@H](C)Oc2ccc(NS(C)(=O)=O)cc2C1=O`, for which the cytotoxicity call is “inactive”.

`C[C@H]1CN([C@@H](C)CO)C(=O)c2cccc(NC(=O)Nc3ccc(C(F)(F)F)cc3)c2O[C@@H]1CN(C)Cc1ccncc1`: the cytotoxicity call was “inactive”.

As to `CC(C)CC#Cc1ccc2c(c1)O[C@H](CN(C)C(=O)c1cnccn1)[C@@H](C)CN([C@H](C)CO)S2(=O)=O`, the cytotoxicity call is “inactive”.
